Reference: PubChem BioAssay AID588342 (National Center for Advancing Translational Sciences (NCATS), 2011)
The whole screen tested about 360,000 compounds, of which about 25,000 (6.9%) were called active. This list was built around the results that the source calls inconclusive (neither active nor inactive); the mix of calls is not that of the screen. The call rests on the fitted dose curve; in most records, active means well fitted inhibition curve with a large enough effect; inconclusive means small, poorly fitted or top-dose-only effect; inactive means flat fitted curve, though single readings scatter. A potency beside an inconclusive call is a rough fit, not a confirmed value.

Target: Luciferin 4-monooxygenase (Photinus pyralis) (UniProt P08659)
Experiment: qHTS profiling assay for firefly luciferase inhibitor/activator using purifed enzyme and Km concentrations of substrates (counterscreen for miR-21 project); further: nearly all actives have a fitted effect of over 55% in size;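 on activity change, negative = inhibition: plate controls were vehicle for no effect and reference inhibitor for full effect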
Conditions: purified FLuc, luminescence inhibition; series mostly up to 57.5 µM; activity change, negative = inhibition: at the top concentration
Method in brief: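 Purified P. pyralis luciferase (10nM final) with 10uM D-luciferin and 10uM ATP (Km levels) in 50mM Tris acetate pH 7.5, 10mM Mg acetate, 0.01% Tween-20, 0.05% BSA; qHTS 6-point titration, ~60 µM downward; luminescence read.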
Potency means the concentration at half of the fitted maximal effect; tags describe the fitted curve by direction and shape.

UniProt P08659, sequence (P08659 whole entry, looked up): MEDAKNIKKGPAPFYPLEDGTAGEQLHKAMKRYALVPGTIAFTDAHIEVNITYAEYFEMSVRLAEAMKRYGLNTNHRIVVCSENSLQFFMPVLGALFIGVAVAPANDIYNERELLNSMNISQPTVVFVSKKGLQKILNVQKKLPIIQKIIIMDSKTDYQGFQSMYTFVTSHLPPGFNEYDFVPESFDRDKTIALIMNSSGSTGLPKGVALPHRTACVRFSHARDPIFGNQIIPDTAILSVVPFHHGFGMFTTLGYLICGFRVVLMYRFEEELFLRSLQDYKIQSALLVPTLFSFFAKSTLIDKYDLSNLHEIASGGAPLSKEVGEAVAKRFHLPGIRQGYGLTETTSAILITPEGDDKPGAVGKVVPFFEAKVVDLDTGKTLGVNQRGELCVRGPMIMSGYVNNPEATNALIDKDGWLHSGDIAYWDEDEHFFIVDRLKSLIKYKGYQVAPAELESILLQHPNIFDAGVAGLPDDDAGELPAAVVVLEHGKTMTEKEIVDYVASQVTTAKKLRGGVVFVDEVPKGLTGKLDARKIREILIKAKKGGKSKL

Structure (SMILES) | Potency | activity change, negative = inhibition
Cc1ccc(-c2n[nH]c(Cc3ccccc3)n2)cc1 | active: 19 µM | –
COc1ccc(/C=N/NC(=O)C2C3CCCCC32)cc1OC (centres undefined) | inconclusive: 37.9 µM [inhibitor, partial curve, poor fit] | –
CCOC(=O)C(CC)/C(C)=N\NC(=O)c1ccccc1O (centres undefined) | inconclusive: 16.9 µM [inhibitor, single point] | –
COc1ccccc1C(=O)NCC(=O)OCC(=O)Nc1cccc(S(=O)(=O)N2CCCCCC2)c1 | inconclusive: 37.9 µM [inhibitor, partial curve, poor fit] | –
Cc1ccc(S(=O)(=O)CCC(=O)OCC(=O)c2cc(C)n(C)c2C)cc1 | inconclusive: 37.9 µM [inhibitor, partial curve, poor fit] | –
CC(=O)c1ccc(N2CCCC2)c(F)c1 | inconclusive: 26.9 µM [inhibitor, single point] | –
CCC(=O)N1CCc2cc(Br)cc(S(=O)(=O)CCC(=O)NCCc3ccc(Cl)cc3)c21 | – | inactive: -4.26%
Cc1cc(C(=O)N/N=C/c2ccccc2[N+](=O)[O-])c(C)o1 | active: 16.9 µM | –
CC(C)CNC(=O)c1cc(-c2ccc3c(c2)OCO3)on1 | active: 1.9 µM | –
Cc1ccccc1CNC(=O)C1CCCN(S(=O)(=O)N(C)c2ccc(F)cc2)C1 (centres undefined) | – | inactive: 4.61%
CCCN(CCC)c1nc(N(CCC)CCC)[nH]c(=O)n1 | inconclusive: 10.7 µM [inhibitor, partial curve, poor fit] | –
OCc1c(OCc2cccc(F)c2)ccc2ccccc12 | inconclusive: 26.9 µM [inhibitor, partial curve] | –
Cc1cc2cc(C=C(C#N)C#N)c(Cl)nc2cc1C | inconclusive: 9.53 µM [inhibitor, partial curve] | –
Cc1ccc(S(=O)(=O)CC(=O)Nc2sc3c(c2C#N)CCCCC3)cc1 | inconclusive: 10.7 µM [inhibitor, partial curve] | –
CCc1nnc(NS(=O)(=O)c2ccc(N/C=C\C(=O)c3ccc4ccccc4c3)cc2)s1 | inconclusive: 23.9 µM [inhibitor, single point] | –
CC(C)CCN(Cc1ccco1)C(=O)c1cc2c(Cl)nc3ccccc3c2s1 | – | inactive: -2.18%
CCOc1ccc(C2Nc3ccccc3-c3nnc(SCc4ccccc4)nc3O2)cc1OC (centres undefined) | inconclusive: 21.3 µM [inhibitor, partial curve, poor fit] | –
Cc1occc1C(=O)NNC(=O)c1ccccc1C(=O)O | inconclusive: 16.9 µM [inhibitor, partial curve] | –
CCOc1ccc(C(=O)Nc2ccccc2C(=O)O)cc1 | active: 0.953 µM | –
